# Hit rate of the full screen: of about 340,000 compounds, fewer than 10 were called active. The inconclusive results got no clear call from the source; some entries with a clear call stand among them for comparison. The call rests on the fitted dose curve; in most records, active means well fitted inhibition curve with a large enough effect in the main read-out, with a control signal flat (not every such curve was filed as active); inconclusive means small, poorly fitted or top-dose-only effect, or effect the other way, or a change in a side signal; inactive means no such curve, though single readings can be large or run the other way. Potencies beside an inconclusive call are fits to weak or partial responses and may not hold up. A note “side channel” means that the fit belongs to a control or component signal, not to the main read-out.
# Molecular target: Tumor susceptibility gene 101 protein (Homo sapiens) (UniProt Q99816)
# Test: qHTS Assay for Iinhibitors of HIV-1 Budding by Blocking the Interaction of PTAP/TSG101
# Settings: Fluorescence polarization, FITC-PTAP peptide / Tsg101 binding; series mostly up to 115 µM
# Summary of the method: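 Tsg101 binding domain (10 uM final) was mixed with compound and a FITC-labeled PTAP peptide (50 nM final) in HEPES pH 7.5 buffer with NaCl, Tween 20, EDTA and TCEP; fluorescence polarization was read after 20 min at r.t.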
# Potency means the concentration at half of the fitted maximal effect; tags describe the fitted curve by direction and shape or compound fluorescence and quenching.
# Sequence of UniProt Q99816 (Q99816 whole entry, looked up): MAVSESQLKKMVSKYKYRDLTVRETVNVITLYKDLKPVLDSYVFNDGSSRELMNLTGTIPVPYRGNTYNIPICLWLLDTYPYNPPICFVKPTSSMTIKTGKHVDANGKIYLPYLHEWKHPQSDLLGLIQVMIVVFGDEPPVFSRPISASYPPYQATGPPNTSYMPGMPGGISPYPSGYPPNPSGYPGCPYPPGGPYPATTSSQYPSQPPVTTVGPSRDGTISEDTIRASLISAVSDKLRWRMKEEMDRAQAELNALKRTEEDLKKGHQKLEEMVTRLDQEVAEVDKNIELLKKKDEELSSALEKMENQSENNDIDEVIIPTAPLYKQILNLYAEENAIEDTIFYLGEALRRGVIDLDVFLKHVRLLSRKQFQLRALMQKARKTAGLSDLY
row,Structure (SMILES),Potency
1,CCOC(=O)c1c(/N=C/N(C)C)sc(/C=N/Nc2ccccc2)c1-c1ccccc1Cl,inactive
2,O=C(N/N=C/c1cc(Cl)cc(Cl)c1O)c1ccncc1,"inconclusive: 50.1 µM [fluorescent, side channel, partial curve, poor fit]"
3,CCc1cc(C(=O)Nc2ccc(OC)nc2)sc1C,"inconclusive: 56.2 µM [fluorescent, side channel, partial curve, poor fit]"
4,CCCn1nc(-c2ccccc2)c2nc3ccccc3nc21,"inconclusive: 56.2 µM [fluorescent, side channel, partial curve, poor fit]"
5,COc1ccc(-c2cc(C(=O)N3CC(C)CC(C)C3)c3ccccc3n2)cc1OC (centres undefined),"inconclusive: 89.1 µM [falling, single point]"
6,Cc1ccc2c(nc3s/c(=C\c4ccc(-c5ccccc5C(=O)O)o4)c(=O)n32)c1C,"inconclusive: 39.8 µM [fluorescent, side channel, partial curve, poor fit]"
7,Cc1cccc(-c2nc(CN3CCCC(C(=O)NC4CCCCC4)C3)c(C)o2)c1 (centres undefined),inactive
8,CCOC(=O)CSc1nc2c(sc(=S)n2-c2ccc(CC)cc2)c(=O)[nH]1,inactive
9,CCN1CCc2c(sc(NC(=O)c3ccc(S(=O)(=O)N4CCCCCC4)cc3)c2C(=O)NC)C1,"inconclusive: 89.1 µM [fluorescent, single point]"
10,CCOc1ccc(Br)cc1S(=O)(=O)Nc1ccc(C(=O)OCC(=O)Nc2ccc(C#N)cc2)cc1,inactive
11,Oc1[nH]c2ccccc2c1N=Nc1ccc(F)cc1,"inconclusive: 50.1 µM [fluorescent, side channel, partial curve, poor fit]"
12,CCOC(=O)C1C(=O)CC(C)(O)C(C(=O)OCC)C1c1ccc(F)cc1 (centres undefined),inactive
13,CSc1ccc(C2C(C(=O)c3ccco3)=C(O)C(=O)N2c2nnc(SC)s2)cc1 (centres undefined),"inconclusive: 100 µM [fluorescent, side channel, partial curve, poor fit]"
14,O=C(NCc1cccc(F)c1)c1cccc2c1C(=O)c1ccc(N3CCCC3)cc1S2(=O)=O,"inconclusive: 56.2 µM [fluorescent, side channel, partial curve, poor fit]"
15,CCN(CC)C(=O)c1sc2nc(-c3cccs3)cc(-c3ccc(Cl)cc3)c2c1N,"inconclusive: 79.4 µM [fluorescent, side channel, partial curve, poor fit]"
16,CN(C)CCNc1ccc2ncn3c4ccc(O)cc4c(=O)c1c23,"inconclusive: 50.1 µM [fluorescent, side channel, partial curve, poor fit]"
17,O=S(=O)(c1ccc(Cl)cc1)N1CCc2ccccc21,"inconclusive: 79.4 µM [fluorescent, side channel, partial curve, poor fit]"
18,COc1ccccc1CNCC(=O)Nc1cc(S(=O)(=O)N2CCCCCC2)ccc1Cl,inactive
19,CN(C)c1nc(SCC(=O)Nc2ccc(Cl)c(Cl)c2)nc(N2CCOCC2)n1,"inconclusive: 79.4 µM [quencher, side channel, partial curve, poor fit]"
20,COc1ccc(Nc2nc3ccccc3nc2-n2nc(C)cc2C)cc1,"inconclusive: 79.4 µM [fluorescent, side channel, partial curve, poor fit]"

row,Structure (SMILES),Potency
1,CCCC[n+]1ccn(C2=C([O-])c3ccccc3C(=O)/C2=N\S(=O)(=O)c2ccc(Br)cc2)c1,"inconclusive: 89.1 µM [fluorescent, side channel, single point]"
2,COc1ccc(C(=O)Nc2ccc3[nH]ccc3c2)cc1,inactive
3,CCc1ccc(NC(=O)Nn2cnnc2)cc1,inactive
4,CCCCNC(=O)C(C#N)c1nc2ccccc2nc1N1CCN(Cc2ccc3c(c2)OCO3)CC1 (centres undefined),"inconclusive: 50.1 µM [fluorescent, side channel, partial curve, poor fit]"
5,Cc1ccccc1C(=O)N1CCc2cc(-c3nc(NC(=O)Cc4ccc5c(c4)OCO5)sc3C)ccc21,inactive
6,O=C(Nc1ccc(S(=O)(=O)Nc2nccs2)cc1)c1cccc(N2C(=O)c3ccccc3C2=O)c1,"inconclusive: 89.1 µM [fluorescent, side channel, single point]"
7,CC1/C(=N/O)C(CN(C)C)C2CC1C2(C)C (centres undefined),inactive
8,CN(C)CCCN1C(=O)c2cccc3c(Br)ccc(c23)C1=O,"inconclusive: 79.4 µM [falling, partial curve, poor fit]"
9,O=C1CCC/C(=N\NC(=O)c2ccc(COc3ccccc3-c3ccccc3)cc2)C1,inactive
10,O=C(CN1CCN(S(=O)(=O)c2ccc(F)cc2)CC1)Nc1cc(C(F)(F)F)ccc1Cl,"inconclusive: 79.4 µM [quencher, side channel, partial curve, poor fit]"
11,COc1ccc(OC)c(/C=C/c2nc3ccccc3[nH]c2=O)c1,"inconclusive: 56.2 µM [fluorescent, side channel, partial curve, poor fit]"
12,NNC(=O)CN1C(c2ccc(Br)cc2)=Nc2ccc(Br)cc2C1c1ccccc1 (centres undefined),inactive
13,CN1CCN(C(=S)SCC(=O)N2CCCc3ccccc32)CC1,inactive
14,CCCNC(=O)CN1CCC(c2nc3ccccc3[nH]2)CC1,"inconclusive: 50.1 µM [fluorescent, side channel, partial curve, poor fit]"
15,c1ccc2c(c1)OCC(c1nnc3sc(-c4cnccn4)nn13)O2 (centres undefined),inactive
16,O=C(C[n+]1cccc2ccccc21)c1ccc(NC(=O)c2ccccc2)cc1,"inconclusive: 70.8 µM [fluorescent, side channel, partial curve]"
17,COc1ccc(S(=O)(=O)NCC2CCCN(Cc3ccc(OC)cc3F)C2)cc1 (centres undefined),inactive
18,O=C1S/C(=C\c2ccc(N3CCOCC3)o2)C(=O)N1Cc1ccc(F)cc1,"inconclusive: 2.82 µM [fluorescent, side channel, full curve, poor fit]"
19,COc1ccccc1OCc1csc(N)n1,inactive

# Reference: PubChem BioAssay AID493005 (National Center for Advancing Translational Sciences (NCATS), 2010)
